Data on 23 compounds can be found in ChEMBL document CHEMBL4888484, “Replenishing the malaria drug discovery pipeline: Screening and hit evaluation of the MMV Hit Generation Library 1 (HGL1) against asexual blood stage Plasmodium falciparum ,using a nano luciferase reporter read-out” (2022).

Among all 150,000 compounds or so, about 540 (0.36%) showed an effect of 50% or more. Some of the results follow.

The test system of this assay is Plasmodium falciparum. Put plainly: Primary screen in NF54 nanoGlo assay, in single point, at 2uM, 72h; a lower Z score goes with more inhibition. It counts as functional, Erythrocyte. The note with it: timepoint 72 hour.
One may read the % Inhibition as the drop in the measured response relative to a control, in per cent. With `Cc1n[nH]c(NCc2cccc(C3CC3)c2)c1C(N)=O`, the “% Inhibition” value was determined as 6% and the Z score is recorded as -1.03.
Taken in the same sequence, the figures for `Cc1cccc(Cn2ncnc2[C@@H](C)CN2CCCC2)c1` were -19% and 1.77.
The matching figures for `CC1CCCN(C(=O)c2cc(Br)c(C(=O)N3CCCC(C)C3)cc2Br)C1` (stereo unspecified): -20% and 3.16.
Taken in the same sequence, the figures for `CC1(C)COCCN1S(=O)(=O)c1cnc2sccn12` were -7% and 1.41.
Take `O=S(=O)(Nc1noc2ccc(C(F)(F)F)cc12)c1cnn(C2CCOCC2)c1`: the “% Inhibition” value amounted to 4% and the Z score was -0.44.
As to `Cc1ccc(CNC(=O)CCn2cnc3oc(C)c(C)c3c2=O)o1`, the “% Inhibition” value stood at 0% and the Z score was -0.03.
The matching figures for `N#CC1CN(c2nc3ccccc3s2)CC12C(=O)Nc1ccccc12` (stereo unspecified): -15% and 2.25.
As for `O=C(Cn1cccc1-c1nc(-c2ccc(F)cc2)no1)NCc1cccc(Cl)c1`, the “% Inhibition” value is given as 5% and the Z score is reported as -0.62.
Taken in the same sequence, the figures for `Cn1cc(-n2cc(C(=O)NCCOCC(F)(F)F)ccc2=O)cn1` were 5% and -0.86.
The matching figures for `CCn1ccc(C(=O)N2CC3(C[C@H](N4CCCCC4)CO3)C2)n1`: -11% and 1.77.
The matching figures for `CNC(=O)c1ccccc1OCc1noc2c1COCC2`: 0% and -0.06.
`COc1ccc(C(=O)Nc2cncc(C(C)C)c2)o1`: the “% Inhibition” value turned out to be 2% and the Z score is -0.18.
Taken in the same sequence, the figures for `Cc1cnc(C2CCC2)n1[C@H]1CCCN(C(=O)c2cccc(C#N)c2)C1` were -19% and 2.42.
In the case of `CC1CCN(C(=O)c2ccc3[nH]nnc3c2)C2CCCCC12` (stereo unspecified), the “% Inhibition” value is -5% and the Z score is 0.93.
The matching figures for `Cc1nc(NC(=O)N2CCOC3(CCC3)C2)ccc1Br`: -15% and 2.32.
The matching figures for `COc1cc(C(=O)N2CCN(CC3CC3)[C@@H]3CS(=O)(=O)C[C@@H]32)ccc1C`: -5% and 1.07.
With `Cc1c(CC(=O)N2CCNC(=O)C2)c2c(n1Cc1ccccc1F)CCCC2=O`, the “% Inhibition” value is listed as -2% and the Z score is on record as 0.32.
The matching figures for `C[C@@H](c1nc(-c2cccs2)no1)N1CCNCC1`: -14% and 1.78.
Taken in the same sequence, the figures for `Clc1ccc2oc(NCc3c[nH]nc3-c3cccnc3)nc2c1` were 0% and 0.
The matching figures for `CC(C)Cc1cc(C(=O)N2CCn3cncc3C2)on1`: 0% and 0.08.
Take `CCN1CCN(c2cc(C(=O)O)c3cc(NS(=O)(=O)c4cc(F)ccc4C)ccc3n2)CC1`: the “% Inhibition” value was -12% and the Z score is given as 1.94.
The matching figures for `Cc1cc(C)n(CC(=O)N[C@H]2CCCN(CCCc3ccccc3)C2)n1`: -12% and 1.63.
The matching figures for `COCCN1C[C@]2(CCCN(C(=O)c3cc(-c4ccsc4)n[nH]3)C2)CCC1=O`: -14% and 1.45.
